Reference: paper doi:10.1101/2024.09.04.610228 (bioRxiv, 2024)

Target: FOXO4 forkhead domain (FHD) (95-195) (UniProt P98177 95-195)
Assay: NMR 1H-15N heteronuclear NOE

B1: p53 transactivation domain (TAD) ([…]) (domain or fragment)
chain: not shown
binding result: binds
